In publication PMC8060278 (2021) one finds Kd data, which are given here for three molecules.

The target in assay [1] is T1, recombinant ligand-binding domain (LBD) of GPIbα (residues His1-Arg290) (human, UniProt P07359 17-306, biotin on the BioTag (…)).
T1 chain: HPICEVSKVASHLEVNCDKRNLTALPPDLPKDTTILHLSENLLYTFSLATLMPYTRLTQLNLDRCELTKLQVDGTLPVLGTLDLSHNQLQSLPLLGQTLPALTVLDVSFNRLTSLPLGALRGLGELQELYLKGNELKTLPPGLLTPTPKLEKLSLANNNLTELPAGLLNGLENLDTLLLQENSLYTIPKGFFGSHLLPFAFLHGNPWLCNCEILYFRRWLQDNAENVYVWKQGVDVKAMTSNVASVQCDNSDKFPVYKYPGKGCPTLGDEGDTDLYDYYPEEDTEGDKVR
The assay can be described thus: BLI; steady-state apparent. On the technique in general: BLI is a label-free optical method that tracks binding on a fibre tip over time.

The target in assay [2] is T1, recombinant ligand-binding domain (LBD) …. Briefly: BLI; lower-affinity state (KD), heterogeneous-ligand fit.
The target is the same in assay [3]. The assay can be described thus: BLI; higher-affinity state (KD'), heterogeneous-ligand fit.
Assay [4] shares this target. The assay can be described thus: BLI; KD,app steady state.
Assay [5] has the same target. The assay can be described thus: BLI; KD' (second site/phase of heterogeneous kinetic fit).
The target is the same in assay [6]. Briefly: BLI; KD (first phase of kinetic fit).

B1: NAIM-A1 (VWF […]) (domain or fragment)
chain: not shown
For the molecule B1, the Kd was found to be 806 nM in assay [1], 431 nM in assay [2] and 4 nM in assay [3].

B2: A1-CAIM (recombinant VWF fragment […]) (domain or fragment)
chain: not shown
Take B2: the Kd in assay [1] was determined as 175 nM; in assay [2] it was 408 nM; in assay [3], 11.2 nM.

B3: tAIM-A1 (VWF […]) (domain or fragment)
chain: not shown
In the case of B3, the results for the Kd in assay [4], in assay [5] and in assay [6] were 171 nM, 4.2 nM and 408 nM, respectively.
